# Experimental data published in the supplement of paper PMC7826260.
# Some of the results follow. The data describe in vitro nicking of single-stranded DNA by Rep domains at 3 µM enzyme and 37 °C for 1 h; the strands have 90 letters, of which the middle is given. Numbers give uncut DNA relative to the enzyme-free pool, as log2; strong cutting gives strongly negative numbers. There is no active / inactive call. Counts are relative to all reads; uncut strands gain when others are lost, and binding without cutting may add a little.
# How the values were obtained:
# Assay in all cases: uncleaved DNA left, log2 of reads against the no-enzyme library (log2 ratio); higher = less cleavage (more negative = more Rep cleavage of the k-mer); sequences stand for … in CTCGTCCG…ACCGGAGA
# [1] = tested on: T1, Rep nickase domain of Muscovy duck circovirus
# T1 sequence (residues 1-111, tag not shown): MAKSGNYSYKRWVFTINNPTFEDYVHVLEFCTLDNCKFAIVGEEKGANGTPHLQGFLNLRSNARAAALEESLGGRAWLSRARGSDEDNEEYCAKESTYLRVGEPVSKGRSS
# Procedure: (§1)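 A pool of 90-nt single-stranded DNAs with seven random bases just before the constant AC of the nick site (name = the seven bases) was cut by 3 µM recombinant His6-SUMO-tagged Rep nickase domain (300 nM DNA, 50 mM HEPES pH 8.0, 50 mM NaCl, 1 mM MnCl2, 1 h, 37 °C, three replicates). Uncut DNA was amplified and sequenced.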
# [2] = tested on: T2, Rep nickase domain of banana bunchy top virus
# T2 sequence (residues 1-94, tag not shown): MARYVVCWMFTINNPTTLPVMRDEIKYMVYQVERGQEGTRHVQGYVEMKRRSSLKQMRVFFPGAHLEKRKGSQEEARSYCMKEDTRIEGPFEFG
# Procedure: as §1
# [3] = tested on: T3, Rep nickase domain of cabbage leaf curl virus
# T3 sequence (residues 1-116, tag not shown): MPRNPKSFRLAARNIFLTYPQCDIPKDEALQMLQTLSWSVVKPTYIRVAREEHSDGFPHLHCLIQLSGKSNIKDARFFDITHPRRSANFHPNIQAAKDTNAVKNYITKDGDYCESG
# Procedure: as §1
# [4] = tested on: T4, Rep nickase domain of chickpea chlorotic dwarf virus
# T4 sequence (residues 1-124, tag not shown): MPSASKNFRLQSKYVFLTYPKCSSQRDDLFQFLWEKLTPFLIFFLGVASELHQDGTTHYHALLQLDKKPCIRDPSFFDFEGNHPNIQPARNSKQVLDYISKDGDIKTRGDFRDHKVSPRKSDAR
# Procedure: as §1
# [5] = tested on: T5, Rep nickase domain of faba bean necrotic yellows virus
# T5 sequence (residues 1-98, tag not shown): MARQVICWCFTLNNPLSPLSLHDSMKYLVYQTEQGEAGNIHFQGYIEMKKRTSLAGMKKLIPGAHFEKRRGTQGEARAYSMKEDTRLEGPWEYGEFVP
# Procedure: as §1
# [6] = tested on: T6, Rep nickase domain of maize striate mosaic virus
# T6 sequence (residues 1-117, tag not shown): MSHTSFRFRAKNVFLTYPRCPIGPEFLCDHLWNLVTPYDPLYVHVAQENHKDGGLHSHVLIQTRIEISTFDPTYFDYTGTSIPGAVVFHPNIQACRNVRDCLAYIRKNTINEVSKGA
# Procedure: as §1
# [7] = tested on: T7, Rep nickase domain of porcine circovirus 2
# T7 sequence (residues 2-116, tag not shown): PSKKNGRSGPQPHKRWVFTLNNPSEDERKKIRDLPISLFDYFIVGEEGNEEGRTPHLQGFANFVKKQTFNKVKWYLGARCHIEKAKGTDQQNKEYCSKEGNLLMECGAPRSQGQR
# Procedure: as §1
# [8] = tested on: T8, Rep nickase domain of tomato yellow leaf curl virus
# T8 sequence (residues 1-136, tag not shown): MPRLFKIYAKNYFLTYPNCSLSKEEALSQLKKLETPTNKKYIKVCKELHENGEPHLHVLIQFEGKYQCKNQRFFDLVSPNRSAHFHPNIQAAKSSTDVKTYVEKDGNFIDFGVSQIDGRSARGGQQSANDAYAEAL
# Procedure: as §1
# [9] = tested on: T9, Rep nickase domain of wheat dwarf virus
# T9 sequence (residues 1-137, tag not shown): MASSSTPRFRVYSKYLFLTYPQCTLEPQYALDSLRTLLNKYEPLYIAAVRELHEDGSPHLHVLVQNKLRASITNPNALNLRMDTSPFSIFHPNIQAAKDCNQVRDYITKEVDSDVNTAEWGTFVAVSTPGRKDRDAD
# Procedure: as §1
Sequence,uncleaved DNA left (log2) [1],uncleaved DNA left (log2) [2],uncleaved DNA left (log2) [3],uncleaved DNA left (log2) [4],uncleaved DNA left (log2) [5],uncleaved DNA left (log2) [6],uncleaved DNA left (log2) [7],uncleaved DNA left (log2) [8],uncleaved DNA left (log2) [9]
CCGCATC,-0.073,-0.0912,0.118,-0.0311,0.0519,-0.464,-0.108,0.0116,0.0152
TACGTCA,0.0572,0.0134,-0.0269,-1.87,-0.0567,-0.257,-0.205,0.0733,-0.118
TCGGGGT,-0.0698,-0.0995,0.326,1.16,-0.101,1.63,0.13,-0.166,-0.0768
CTGGTGG,0.0266,0.0439,0.137,0.502,0.0577,0.046,0.168,-0.0764,-0.0561
GTCGCAG,0.0953,0.21,0.409,0.931,-0.021,1.84,0.339,0.136,0.167
AGCAGTG,0.000401,0.069,-0.136,0.346,0.0193,0.976,0.051,-0.154,0.01
AATAAGG,0.19,0.163,0.115,1.12,0.134,0.561,0.174,-0.00347,0.107
CCAGGTG,-0.0454,0.115,-0.21,-0.184,-0.134,-0.518,0.279,-0.0125,-0.0234
TTGCCGA,-0.00832,-0.207,-0.856,-0.492,-0.102,-0.96,-0.19,-0.00668,-0.261
GTGCTCG,0.11,-0.104,-0.396,-0.362,-0.113,-0.566,0.0568,-0.0173,-0.0357
CTGAACG,0.149,0.0666,-0.0569,0.318,0.121,-0.455,0.241,-0.0802,0.142
GTGTTAT,-0.00449,0.0153,0.332,0.934,0.11,1.71,-0.217,0.0396,-0.0224
ATTGCGG,-0.0541,-0.0189,-0.778,-0.633,0.0263,-0.899,0.107,0.025,-0.0887
ACCAGCA,-0.0148,0.0517,-0.538,-0.733,0.122,-1.05,0.0843,0.18,0.00511
ATCAACT,0.0901,0.0247,-0.242,-2.56,0.11,-0.828,-0.175,0.047,0.107
ACCCGTC,-0.108,-0.218,-0.0655,-0.14,-0.105,-0.819,0.0571,-0.24,-0.162
CACATGG,-0.0547,-0.0327,-0.568,-0.465,-0.194,-0.952,-0.0395,-0.0401,-0.0926
GCTGAGG,-0.0739,-0.0354,0.26,0.868,0.038,0.341,0.132,-0.0611,-0.0467
TCGACTG,0.0561,0.121,0.0174,0.765,0.129,1.82,0.0907,-0.0207,0.27
CACTATC,0.0912,0.0445,-0.024,-0.508,-0.00857,-0.49,-2.14,0.0813,0.024

Sequence,uncleaved DNA left (log2) [1],uncleaved DNA left (log2) [2],uncleaved DNA left (log2) [3],uncleaved DNA left (log2) [4],uncleaved DNA left (log2) [5],uncleaved DNA left (log2) [6],uncleaved DNA left (log2) [7],uncleaved DNA left (log2) [8],uncleaved DNA left (log2) [9]
AATAATC,0.0288,0.114,0.0985,-0.209,0.066,-0.693,0.0828,0.0159,0.0702
GCACCCC,-0.116,0.134,0.118,0.397,0.0182,0.301,-0.365,-0.0117,0.104
GCCATCG,0.0654,-0.0518,-0.73,-0.215,0.0679,-0.781,0.15,0.0968,-0.177
CCAGGAC,-0.00475,0.053,0.409,1.17,-0.0329,1.17,0.197,-0.00074,0.039
ATAGTCC,0.092,0.0555,0.121,-0.465,-0.0675,-0.436,-0.108,0.0151,0.0188
ATTCCTG,-0.218,-0.0172,-0.193,-0.101,-0.0578,-0.0781,-0.242,0.00431,-0.029
GCGACTC,0.0667,0.131,0.0377,0.677,-0.0631,1.48,0.0327,-0.0473,0.0838
TCGTAGC,-0.0419,-0.0987,-0.0513,-0.26,0.0902,-0.979,0.0971,0.0814,-0.0418
CCGGTTA,-0.00866,0.0207,0.0661,-0.0634,-0.0818,0.874,0.0253,-0.0824,-0.209
ACTCAAT,0.157,0.159,-0.0389,-0.479,0.0629,-0.531,-1.27,0.0544,-0.088
CAGTCCA,-0.114,-0.429,-0.15,-2.19,-0.614,-0.364,-2.86,0.072,0.0769
TCTAGTT,0.0913,-0.0605,-0.0634,-1.84,0.0194,-0.425,-0.556,-0.0319,-0.113
TTCACCC,-0.0652,0.0405,0.226,-0.947,-0.0359,-0.0946,-0.42,0.027,-0.0205
CGCACAG,-0.00817,-0.0336,-0.452,-0.234,-0.0788,-0.555,-0.0202,-0.00118,-0.0274
TGCCTGG,0.0737,-0.0126,0.129,0.37,0.0292,0.288,0.145,-0.00495,0.0189
ACCTAGC,-0.113,0.0224,-0.583,-0.553,-0.0339,-1.06,0.0915,-0.0771,-0.0745
TTAAAAG,0.041,0.00129,-0.725,-0.756,-0.0172,-1.34,0.2,0.0394,-0.0383
GCCCCAG,0.0871,0.113,-0.347,-0.0885,0.123,-0.399,0.103,0.226,0.166
GGTATGT,0.0147,0.0594,0.586,1.27,0.00771,1.83,0.0588,0.156,0.0885
AAAAACT,0.0898,0.077,-2.89,-2.73,0.181,-1.08,-1.67,0.0589,-1.02

Sequence,uncleaved DNA left (log2) [1],uncleaved DNA left (log2) [2],uncleaved DNA left (log2) [3],uncleaved DNA left (log2) [4],uncleaved DNA left (log2) [5],uncleaved DNA left (log2) [6],uncleaved DNA left (log2) [7],uncleaved DNA left (log2) [8],uncleaved DNA left (log2) [9]
GGCAACT,-0.014,0.129,0.565,0.842,0.0511,1.86,0.123,0.0859,0.163
CGAGAAT,0.217,0.185,0.166,0.364,0.0557,0.433,-0.068,0.0724,0.138
CGTGTGC,0.0964,-0.01,-0.422,-0.34,0.0515,-0.796,0.114,0.147,0.0803
GCTGGGC,0.0253,0.0892,0.246,0.826,-0.0285,0.616,0.19,0.104,0.0105
GCACAAA,-0.0788,-0.0419,-0.0793,0.386,-0.0871,-0.0669,0.0123,0.00269,0.051
TCAAGCT,0.0966,0.0832,0.236,0.738,0.142,0.903,0.215,-0.0893,0.0397
CTCATCG,-0.0668,0.09,-0.802,0.184,0.131,-0.948,0.124,-0.0111,-0.0359
ATCCCGT,0.141,0.00525,-0.276,-0.795,0.105,-0.753,0.146,0.0986,0.0147
GATTCCT,-2.84,-2.75,0.0189,-1.87,-0.184,0.83,-3.29,0.0163,-0.115
AGACTAT,0.117,0.098,0.607,0.897,0.0975,1.58,0.0919,0.0942,0.16
TGGTGTG,-0.0467,-0.117,-0.743,-0.345,-0.0478,-0.772,0.0691,-0.00837,-0.22
GCCCATT,-0.00281,0.0617,0.0481,-0.0715,-0.239,0.403,-0.316,-0.0987,0.0264
AGGTGTA,-0.0469,-0.0406,0.158,0.17,0.015,0.963,-0.168,-0.0534,0.000503
ATGAATC,0.0933,0.0778,0.0428,0.209,0.0322,-0.597,0.1,-0.0523,0.0059
CGCTCCT,-0.304,-0.00396,-0.0993,-1.23,-0.102,0.0323,-0.947,-0.000502,-0.0436
ATAAGGG,0.0689,0.0325,-0.195,0.654,0.0928,-0.148,0.165,0.0199,-0.00118
TAAGACA,0.032,0.0104,-0.872,-2.41,-0.0842,0.596,0.0369,0.078,-0.144
TCCAGAT,0.0465,0.0307,0.218,0.82,-0.00801,1.26,0.1,-0.192,-0.0933
TGTTCTT,-3.29,-0.27,0.0521,-1.1,-0.115,0.849,-2.73,-0.0137,-0.0429
CGTAAGA,0.0849,0.0949,-0.0147,-0.0668,0.101,-0.813,0.0727,0.0101,0.133
